2 compounds from publication PMC10429771, “Bioorthogonal activation of prodrugs, for the potential treatment of breast cancer, using the Staudinger reaction” (RSC Medicinal Chemistry, 2023) can be followed below.

The nature of this assay: HPLC release study (Staudinger activation by 9-azido sialic acid 4). The conditions noted are these: prodrug 50 μM + 9-azido sialic acid 4 100 μM, CH3CN/H2O (1:1), 37 °C, monitored for 30 hours.

For `COc1cccc2c1C(=O)c1c(O)c3c(c(O)c1C2=O)C[C@@](O)(C(=O)CO)C[C@@H]3OC1C[C@@H](NC(=O)c2ccccc2P(c2ccccc2)c2ccccc2)[C@@H](O)[C@@H](C)O1` (stereo partly drawn) [Dox-prodrug 12, 2-(Diphenylphosphino)-N-((2R,3R,4R)-3-hydroxy-2-methyl-6-(((1S,3S)-3,5,12-trihydroxy-3-(2-hydroxyacetyl)-10-methoxy-6,11-dioxo-1,2,3,4,6,11-hexahydrotetracen-1-yl)oxy)tetrahydro-2H-pyran-4-yl)benzamide], the “time to full disappearance of prodrug HPLC signal” value amounted to 24 h.

Regarding `O=C(Nc1ccc(N(CCCl)CCCl)cc1)c1ccccc1P(c1ccccc1)c1ccccc1` [N-mustard prodrug 10, N-(4-(Bis(2-chloroethyl)amino)phenyl)-2-(diphenylphosphaneyl)benzamide], the “time to full disappearance of prodrug HPLC signal” value is 24 h.
